Reference: the supplement of paper PMC8728848
The other results are listed elsewhere or left out.

Experiments:
Experiment in all cases: glycan array binding signal (z-score within array); higher = stronger binding
Details in all cases: glycan notation: IUPAC condensed, linker removed
[1] = target: Neu5Ac9Ac(a2-3)Gal(b1-4)GlcNAc
Method in brief: (§1)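 The binding signal is a Z-score computed within each array. Data were drawn from 3228 arrays in the Consortium for Functional Glycomics database, restricted to those with a known protein sequence. Scores were averaged over arrays of the same protein sequence at different concentrations or buffers, and over linkers, and negative values can be taken as non-binding.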

[2] = target: Neu5Ac9Ac(a2-6)Gal(b1-4)GlcNAc
Method in brief: as §1

[3] = target: Neu5Gc(a2-3)Gal(b1-3)GlcNAc
Method in brief: as §1

[4] = target: Neu5Gc(a2-3)Gal(b1-3)[Fuc(a1-4)]GlcNAc
Method in brief: as §1

Neu5Gc(a2-3)Gal(b1-4)Glc = target: Neu5Gc(a2-3)Gal(b1-4)Glc
Method in brief: as §1

[5] = target: Neu5Gc(a2-3)Gal(b1-4)GlcNAc
Method in brief: as §1

[6] = target: Neu5Gc(a2-3)Gal(b1-4)[Fuc(a1-3)]GlcNAc
Method in brief: as §1

[7] = target: Neu5Gc(a2-6)Gal(b1-4)GlcNAc
Method in brief: as §1

Neu5Gc(a2-6)GalNAc = target: Neu5Gc(a2-6)GalNAc
Method in brief: as §1

[8] = target: Neu5Gc(b2-6)Gal(b1-4)GlcNAc
Method in brief: as §1

B1: Gal 9 (Canis lupus) (protein)
chain: MAFSSSQPPYLSPGVPFSGKIQGGLQDGLKITINGTILYCNGTRFAVNFHSGHSDSDIAFHFNPRFEEGGYVVCNTKQKGSWGSEERKMQMPFQMGNPFELCFMVNSCDFKVTVNGSHFTQYSHRVPFHYVDTLSITGAVQLSYISFQSPGVWQSSSAPITQTVIHTVQTTPGQPFPNPIIPPTAYPTPTYPMPFFTSIPGGLYPSKSIIVSGTVLPGAKRFHINLRSGNDIAFHLNPRFNENTVVRNMQINNSWGSEERSLPRKMPFVQGQSFSVWIMCEGHCFKVAVDGEHLFEYYHRLKNLLAINNMEVAGDVQLTHVQT
B1 was tested, and the “glycan array binding signal (z-score)” value [1] was 0.477, the “glycan array binding signal (z-score)” value [2] was -0.358 and the “glycan array binding signal (z-score)” value [3] was 0.216. For the same binder, the “glycan array binding signal (z-score)” value [4] was -0.122, the “glycan array binding signal (z-score)” value (Neu5Gc(a2-3)Gal(b1-4)Glc) was -0.037 and the “glycan array binding signal (z-score)” value [5] was 0.045. For the same binder, the “glycan array binding signal (z-score)” value [6] was -0.325, the “glycan array binding signal (z-score)” value [7] was -0.351 and the “glycan array binding signal (z-score)” value (Neu5Gc(a2-6)GalNAc) was -0.354. The “glycan array binding signal (z-score)” value [8] was -0.335.
